# Assay results as given in PubChem BioAssay (Tox21).
# Inconclusive means that the source gave no clear call. Such entries were picked first, then a sample of the others. Entries that show only a call come without a potency. For some of these results: Potencies beside an inconclusive call are fits to weak or partial responses and may not hold up. Active and inactive are the calls of the source. Unless noted, calls follow the shape of the dose curve; as a rule, active = well fitted curve in the direction sought with a large enough effect in the repeat runs; inconclusive = weak or mixed curves; inactive = no such curve, though single readings can be large; an effect the other way counts as inactive or inconclusive.
# How the values were obtained:
# [1] = Caspase-3/7 induction in HepG2 cells by small molecules, qHTS assay (AID 1346978); also: nearly all actives have a fitted effect of over 15% in size
# Summary of the method: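 Wild-type HepG2 cells, 2,000/well, settled 5 hr at 37 C and 5% CO2, then compound-treated for 17 hr; caspase-3/7 activity read by luminescent Caspase-Glo 3/7 after 30 min at room temperature.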
# [2] = qHTS assay to identify small molecule HDAC inhibitors - cell viability counter screen (AID 1259365); also: nearly all actives have a fitted effect of over 50% in size
# Summary of the method: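 HCT-116 wild-type, overnight attachment; 2hr drug exposure, 37C; CellTiter-Glo luminescent ATP readout after 30min RT.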
# [3] = qHTS assay to identify small molecule antagonists of the glucocorticoid receptor (GR) signaling pathway - cell viability counter screen (AID 720693); details: GR-bla HeLa viability, CellTiter-Glo luminescence, 18 h, with 5 nM dexamethasone present; viability change, negative = cytotoxic: at 58.5 µM (top of the series) unless noted; also: nearly all actives have a fitted effect of over 55% in size; also: potency is read from the fitted curve at half-maximal effect
# [4] = qHTS assay to identify small molecule antagonists of the estrogen related receptor signaling pathway with the pleiotropic PPARgamma coactivator (PGC) cell viability counter screen (AID 1224822;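 also: viability read after 17.5 h compound exposure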)
# Summary of the method: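 qHTS format, DMSO compound stocks pin-transferred onto PGC/ERR cells 6 h after plating; 17.5 h exposure at 37 C, then CellTiter-Fluor fluorescence.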
# [5] = qHTS assay to test for compound auto fluorescence at 460 nm (blue) in HEK293 cells (AID 720678)
# Summary of the method: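 HEK293, 2,000 cells/well, 10% dialyzed FBS; attach 4-5 hr 37C; pin compound or DMSO; o/n 37C/5% CO2; fluorescence 405/460 nm; triamterene-equivalent units.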
# [6] = qHTS assay to identify small molecule agonists of the hypoxia (HIF-1) signaling pathway (AID 1224846; active = well fitted activation curve with a large enough effect in the signal ratio in the repeat runs, not every such curve was filed as active; inconclusive = weak or mixed curves; the % refers to the signal ratio; also: potency is read from the fitted curve at half-maximal effect); details: HRE-bla ME-180 cells, beta-lactamase ratio, 17 h; activation: at 76.8 µM (top of the series) unless noted
# Summary of the method: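 Measured by blue/green FRET after loading CCF4-AM: beta-lactamase expressed from a hypoxia response element in ME-180 cells. Test agents were delivered in DMSO and left 17 hrs; cells had been plated 5 hrs earlier in low-serum (0.5% dialyzed FBS) medium.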
# [7] = target: Androgen receptor (Homo sapiens) (UniProt P10275); experiment: qHTS assay to identify small molecule antagonists of the androgen receptor (AR) signaling pathway using the MDA cell line (AID 743042; also: potency is read from the fitted curve at half-maximal effect; nearly all actives have a fitted effect of over 55% in size)
# Summary of the method: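 MDA-kb2 breast carcinoma cells carrying MMTV-luciferase (AR/GR responsive) were co-treated with compounds and the agonist R1881 for 16 h at 37C. Inhibition read as ONE-Glo luminescence; CellTiter-Fluor fluorescence measured in parallel for cytotoxicity.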
# [8] = qHTS assay to identify small molecule antagonists of the estrogen related receptor (ERR) signaling pathway (AID 1224819;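 also: luminescence from an ERR-driven luciferase reporter measured with One-Glo reagent; nearly all actives have a fitted effect of over 50% in size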)
# Summary of the method: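 LOPAC library screened for antagonism as reduced One-Glo luminescence in ERR reporter cells (2,000/well). Compounds were added after 6 h pre-incubation and left 18 h at 37C; reading followed a 30 min room-temperature reagent step.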
# [9] = test system: estrogen-related receptor alpha (ERRalpha) with PGC-1alpha coactivator, human; experiment: qHTS assay to identify small molecule antagonists of the estrogen related receptor signaling pathway with the pleiotropic PPARgamma coactivator (PGC) (AID 1224821; calls by dose curve; also: potency is read from the fitted curve at half-maximal effect; nearly all actives have a fitted effect of over 50% in size)
# Summary of the method: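 Luminescent read-out (One-Glo, 30 min at room temperature) following 18 h treatment of PGC/ERR cells at 37 C with compounds delivered in DMSO. Cells had settled 6 h at 37 C/5% CO2 before dosing.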
# [10] = target: Thyrotropin-releasing hormone receptor (Homo sapiens) (UniProt P34981); experiment: qHTS assay to identify small molecule antagonists of the thyrotropin-releasing hormone receptor (TRHR) signaling pathway (AID 1346877; active = well fitted inhibition curve with a large enough effect in the repeat runs, not every such curve was filed as active; inconclusive = weak or mixed curves; also: potency is read from the fitted curve at half-maximal effect)
# Summary of the method: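 In this cell-based calcium flux format, HEK293 cells expressing TRHR received test compound for 5 min before the agonist TRH (1 nM final). Dye loading lasted 2 h at 37 °C.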
# [11] = A CellTox Green Cytotoxicity Assay to monitor cytotoxicity in HepG2 cells - 0 hour (AID 1224882); details: CellTox Green fluorescence; also: potency is read from the fitted curve at half-maximal effect; nearly all actives have a fitted effect of over 35% in size
# Summary of the method: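 Continuous culture of HepG2 cells with a membrane-impermeant DNA dye; rising fluorescence marks dead cells. Compound exposure lasted up to 40 h at 37 C, with reads every 8 h from 0 h.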
# [12] = target: Androgen receptor (Homo sapiens) (UniProt P10275); experiment: qHTS assay to identify small molecule agonists of the androgen receptor (AR) signaling pathway in the presence of an antagonist (AID 1259381; calls by dose curve; also: nearly all actives have a fitted effect of over 15% in size; also: potency is read from the fitted curve at half-maximal effect); details: MDA-kb2 MMTV-luciferase, AR agonist + nilutamide, 16 h; activation: at 92.4 µM (top of the series)
# Summary of the method: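 Here, 15-concentration compound series were pin-transferred onto MDA-kb2 MMTV-luciferase cells already dosed with nilutamide (3.0uM final). After 16hr at 37C, ONE-Glo was added and luminescence read 30min later at room temperature.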
# [13] = qHTS assay to identify small molecule antagonists of the androgen receptor (AR) signaling pathway using the MDA cell line in the presence of 0.5 nM R1881 - cell viability counter screen (AID 1259242); also: nearly all actives have a fitted effect of over 45% in size
# Summary of the method: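 Fluorescence from CellTiter-Fluor, which reports protease activity of live cells, was read 30 min after reagent addition to MDA-kb2 cells that had been incubated 16 hr with compound and 0.5 nM R1881.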
# [14] = qHTS assay to test for compound auto fluorescence at 535 nm (green) in HepG2 cell free culture (AID 720686)
# [15] = qHTS RealTime-Glo MT Cell Viability Assay in HepG2 cells - 40 hour (AID 1224870); also: nearly all actives have a fitted effect of over 50% in size
# Summary of the method: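 HepG2 cells (600/well) mixed with RealTime-Glo MT reagent, settled 5 h at 37 C/5% CO2 before compound addition. Nonlytic NanoLuc luminescence from viable-cell prosubstrate reduction read repeatedly during 40 h treatment at 37 C.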
# [16] = target: Bile acid receptor (Homo sapiens) (UniProt Q96RI1); experiment: qHTS assay to identify small molecule agonists of the farnesoid-X-receptor (FXR) signaling pathway (AID 743220; active = well fitted activation curve with a large enough effect in the signal ratio in the repeat runs, not every such curve was filed as active; inconclusive = weak or mixed curves, or effect the other way; the % refers to the signal ratio; also: potency is read from the fitted curve at half-maximal effect); details: HEK293T FXR-UAS-bla, beta-lactamase FRET ratio, 16 h; activation: at 62.6 µM (top of the series)
# Summary of the method: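 Beta-lactamase reporter under UAS control in GeneBLAzer FXR HEK 293T cells (5000/well) measured with LiveBLAzer FRET substrate after 2 h at room temperature. Compound exposure lasted 16 h at 37C.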
# [17] = qHTS assay to test for compound auto fluorescence at 460 nm (blue) in HEK293 cell free culture (AID 720681); details: cell-free medium, autofluorescence 405/460 nm (blue); also: potency is read from the fitted curve at half-maximal effect
# Summary of the method: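 Compounds were added to cell-free DMEM with 10% FBS and fluorescence read directly. The blue channel used 405 nm excitation and 460 nm emission, with triamterene as the reference fluorophore.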
# [18] = target: Estrogen receptor (Homo sapiens) (UniProt P03372); experiment: qHTS assay to identify small molecule agonists of the estrogen receptor alpha (ER-alpha) signaling pathway in the presence of an antagonist (AID 1259383; calls by dose curve; also: potency is read from the fitted curve at half-maximal effect; nearly all actives have a fitted effect of over 15% in size)
# Summary of the method: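 In VM7Luc4E2 cells, 4,000 per well, compounds at 15 concentrations were co-incubated 22hr at 37C with 10.0nM final ICI-182,780. Luminescence from the stably transfected 4×ERE-luciferase reporter was recorded 30min after ONE-Glo addition.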
# [19] = qHTS RealTime-Glo MT Cell Viability Assay in HepG2 cells - 16 hour (AID 1224885); also: nearly all actives have a fitted effect of over 50% in size; also: potency is read from the fitted curve at half-maximal effect
# Summary of the method: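 Real-time, nonlytic viability: 600 HepG2 cells/well mixed with NanoLuc enzyme plus prosubstrate; 5 h settle, compound (DMSO) added by pintool; luminescence monitored over 40 h at 37 C.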
# [20] = qHTS assay to identify small molecule antagonists of the farnesoid-X-receptor (FXR) signaling pathway - cell viability counter screen (AID 743221; active = well fitted cell-killing curve with a large enough effect in the repeat runs, not every such curve was filed as active; inconclusive = weak or mixed curves, or effect the other way; inactive = no such curve, though single readings can be large or run the other way; also: nearly all actives have a fitted effect of over 50% in size; also: potency is read from the fitted curve at half-maximal effect); details: FXR-bla HEK293T viability, CellTiter-Glo luminescence, 16 h; activity change, negative = cytotoxicity: at 62.6 µM (top of the series) unless noted
# Summary of the method: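 Cytotoxicity is taken from ATP luminescence (CellTiter-Glo, 30 min, room temperature) in FXR-bla HEK 293T cells previously incubated 16 h at 37 C with compound and chenodeoxycholic acid at 50 uM final.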
# Tags tell the direction and shape of the fitted curve or compound fluorescence and quenching.
# Chain of UniProt Q96RI1 (Q96RI1 whole entry, looked up): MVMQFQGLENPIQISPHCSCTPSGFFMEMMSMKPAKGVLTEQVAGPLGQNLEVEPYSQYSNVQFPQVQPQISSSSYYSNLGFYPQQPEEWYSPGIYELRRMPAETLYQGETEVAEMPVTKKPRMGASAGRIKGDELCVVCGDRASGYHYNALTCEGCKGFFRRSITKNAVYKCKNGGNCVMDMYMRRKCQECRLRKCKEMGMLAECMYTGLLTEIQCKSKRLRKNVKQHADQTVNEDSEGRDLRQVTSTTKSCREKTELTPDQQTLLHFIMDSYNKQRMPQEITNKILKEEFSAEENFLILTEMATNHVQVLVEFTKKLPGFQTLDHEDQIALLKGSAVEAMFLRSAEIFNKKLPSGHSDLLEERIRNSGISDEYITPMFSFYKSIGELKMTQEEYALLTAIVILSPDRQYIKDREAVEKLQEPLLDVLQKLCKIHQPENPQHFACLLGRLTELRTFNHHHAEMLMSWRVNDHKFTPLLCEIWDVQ
# Chain of UniProt P10275 (P10275 whole entry, looked up): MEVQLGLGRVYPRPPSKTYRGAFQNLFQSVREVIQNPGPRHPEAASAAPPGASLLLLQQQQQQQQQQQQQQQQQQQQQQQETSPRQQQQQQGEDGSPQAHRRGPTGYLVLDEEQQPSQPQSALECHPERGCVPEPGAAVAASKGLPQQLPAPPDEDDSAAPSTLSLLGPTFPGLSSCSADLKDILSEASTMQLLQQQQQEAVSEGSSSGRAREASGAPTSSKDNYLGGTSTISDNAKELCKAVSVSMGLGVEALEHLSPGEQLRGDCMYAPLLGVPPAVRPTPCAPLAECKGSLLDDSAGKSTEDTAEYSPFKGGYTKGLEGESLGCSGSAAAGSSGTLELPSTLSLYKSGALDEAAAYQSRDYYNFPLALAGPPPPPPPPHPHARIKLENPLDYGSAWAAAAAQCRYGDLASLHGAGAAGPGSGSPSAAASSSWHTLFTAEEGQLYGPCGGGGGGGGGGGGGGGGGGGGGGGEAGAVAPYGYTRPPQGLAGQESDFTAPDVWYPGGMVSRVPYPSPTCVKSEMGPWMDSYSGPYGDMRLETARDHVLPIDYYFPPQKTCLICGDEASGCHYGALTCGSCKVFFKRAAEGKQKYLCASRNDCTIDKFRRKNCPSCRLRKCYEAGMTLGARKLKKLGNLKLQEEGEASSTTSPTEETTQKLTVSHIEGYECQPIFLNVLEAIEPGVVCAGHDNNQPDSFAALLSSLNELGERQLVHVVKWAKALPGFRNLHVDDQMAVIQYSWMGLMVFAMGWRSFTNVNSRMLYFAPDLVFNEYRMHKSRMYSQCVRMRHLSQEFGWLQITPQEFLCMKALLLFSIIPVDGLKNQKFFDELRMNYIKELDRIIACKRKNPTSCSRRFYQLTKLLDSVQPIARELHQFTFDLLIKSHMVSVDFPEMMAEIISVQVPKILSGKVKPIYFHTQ
# Chain of UniProt P34981 (P34981 whole entry, looked up): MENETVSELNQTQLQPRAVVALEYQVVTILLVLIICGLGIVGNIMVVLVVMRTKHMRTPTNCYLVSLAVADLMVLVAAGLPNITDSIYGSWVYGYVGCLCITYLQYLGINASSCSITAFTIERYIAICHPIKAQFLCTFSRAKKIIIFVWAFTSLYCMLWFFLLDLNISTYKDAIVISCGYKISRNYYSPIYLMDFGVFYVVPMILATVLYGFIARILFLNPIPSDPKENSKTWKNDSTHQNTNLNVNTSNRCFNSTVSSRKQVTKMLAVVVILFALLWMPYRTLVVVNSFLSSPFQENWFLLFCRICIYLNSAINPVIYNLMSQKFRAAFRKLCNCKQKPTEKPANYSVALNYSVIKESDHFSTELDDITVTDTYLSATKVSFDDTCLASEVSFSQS
# Chain of UniProt P03372 (P03372 whole entry, looked up): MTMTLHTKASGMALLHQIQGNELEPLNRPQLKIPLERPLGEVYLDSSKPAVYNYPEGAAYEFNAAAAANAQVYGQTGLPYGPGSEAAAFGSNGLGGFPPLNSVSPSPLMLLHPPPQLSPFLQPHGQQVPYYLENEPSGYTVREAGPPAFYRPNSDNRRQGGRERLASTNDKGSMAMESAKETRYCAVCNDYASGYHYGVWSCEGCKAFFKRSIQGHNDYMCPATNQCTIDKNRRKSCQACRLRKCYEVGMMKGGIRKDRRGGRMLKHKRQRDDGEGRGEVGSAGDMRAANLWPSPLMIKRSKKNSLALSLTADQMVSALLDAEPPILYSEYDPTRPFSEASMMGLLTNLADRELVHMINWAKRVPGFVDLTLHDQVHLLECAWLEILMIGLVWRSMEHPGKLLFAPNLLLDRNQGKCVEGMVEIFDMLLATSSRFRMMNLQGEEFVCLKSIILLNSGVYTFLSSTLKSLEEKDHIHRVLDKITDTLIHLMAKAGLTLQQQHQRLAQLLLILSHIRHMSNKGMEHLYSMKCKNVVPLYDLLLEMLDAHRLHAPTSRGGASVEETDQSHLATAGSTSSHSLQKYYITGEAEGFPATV
structure (smiles),measurement,setting,value
CCOC(=O)CCl,Potency,[1],inactive
CC(C)C(=O)Cl,Potency,[2],inactive
COC(=O)C1=CCCN(C)C1,Potency,[3],"inconclusive: 26.8 µM [rising, single point]"
same,Potency,[4],inactive
OCC(O)CCl (stereo not drawn),Potency,[5],inactive
N[C@@H](Cc1ccc(Oc2cc(I)c(O)c(I)c2)c(I)c1)C(=O)O,activation,[6],inconclusive: 0.824% [at 35.5 µM]
Cc1ccc(S(=O)(=O)N[C@@H](CCCCN)C(=O)CCl)cc1,Potency,[7],active: 23.7 µM
same,Potency,[8],inactive
same,Potency,[9],"inconclusive: 18.8 µM [inhibitor, single point]"
Cc1ncc2n1-c1ccc(Cl)cc1C(c1ccccc1F)=NC2,Potency,[10],"inconclusive: 14.7 µM [inhibitor, partial curve]"
CC(C)NCC(O)c1ccc([N+](=O)[O-])cc1 (stereo not drawn),Potency,[11],"inconclusive: 23.9 µM [activator, partial curve, poor fit]"
Cc1ccc(C(=O)Cl)cc1,Potency,[12],inactive
CC(CCc1ccccc1)NC(C)C(O)c1ccc(O)cc1 (stereo not drawn),Potency,[13],inactive
C[N+](C)(C)Cc1ccccc1,Potency,[14],inactive
COc1cc(CC#N)cc(OC)c1OC,Potency,[15],inactive
[Cl-].[Cl-].[Cl-].[Fe+3],Potency,[13],inactive
COc1ccc(OC)c(C=O)c1,Potency,[15],inactive
CN1CC[C@]23c4c5ccc(O)c4O[C@H]2[C@@H](O)C=C[C@H]3[C@H]1C5,Potency,[11],"inconclusive: 48.3 µM [activator, single point]"
same,Potency,[1],inactive
CC(C)NCC(O)c1ccc(N)c(C#N)c1 (stereo not drawn),Potency,[16],"inconclusive: 13.3 µM [rising, partial curve, poor fit]"
CCCCCCCCCCCCN(C)C,Potency,[3],"inconclusive: 21.9 µM [cytotoxic, single point]"
same,Potency,[2],inactive
CC(C)(Cl)Cl,Potency,[17],"inconclusive: 12.6 µM [rising, partial curve, poor fit]"
NNCc1ccccc1,Potency,[5],inactive
same,Potency,[18],"inconclusive: 19.7 µM [activator, partial curve]"
Clc1cccc(Cl)c1Cl,Potency,[3],inactive
O=C(O)C(F)(F)C(F)(F)C(F)(F)C(F)(F)C(F)(F)C(F)(F)C(F)(F)C(F)(F)F,Potency,[19],"inconclusive: 21.9 µM [cytotoxic, single point]"
CCCN1CCC[C@@H]2Cc3[nH]ncc3C[C@H]21,Potency,[8],inactive
same,Potency,[4],inactive
same,Potency,[19],inactive
C1CCC(C2CCCCC2)CC1,Potency,[20],"inconclusive: 34.7 µM [falling, partial curve, poor fit]"
same,Potency,[6],"inconclusive: 38.9 µM [rising, partial curve]"
CC(Oc1cccc(Cl)c1)C(=O)O (stereo not drawn),Potency,[15],inactive
OCCCl,Potency,[16],inactive
[Cl-].[Cl-].[Cl-].[Yb+3],Potency,[13],inactive
C=CCSSCC=C,Potency,[14],inactive
same,Potency,[2],inactive
O=C(Nc1ccccc1)N(Cc1ccc(Cl)cc1)C1CCCC1,Potency,[16],inactive
same,Potency,[19],"inconclusive: 49 µM [cytotoxic, partial curve]"
CCOP(=S)(OCC)Oc1cnc2ccccc2n1,"activity change, negative = cytotoxicity",[20],inconclusive: 39.2%
c1ccc2nc(N3CCNCC3)ccc2c1,Potency,[6],"inconclusive: 0.848 µM [falling, full curve]"
CNC(=O)N(C)c1nc2ccccc2s1,Potency,[20],inactive
same,Potency,[12],"inconclusive: 27.3 µM [rising, partial curve]"
